± gives the standard error. Variants at the floor of the assay are shown more often than the library holds them. Where only a bound is given, the exact number is not on record here.

B1: glmS ribozyme (parent)
chain: AUAAAAGCGCCAGAACUACAGAAAUGUAGUUGACGAGGAGGAGGUUUAUCGAAUUUUCGGCGGAUGCCUCCAAA

The variants in this data set derive from B1. Kind of data set: self-cleavage kobs at 2500 uM GlcN6P; higher = faster cleavage; RNA array. To be noted: with glucosamine-6-phosphate. The gist of the method: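 Barcoded ribozyme variants, transcribed in situ by E. coli RNA polymerase on sequenced MiSeq chips, were followed via a hybridised Cy3 probe at 37 °C. Glucosamine-6-phosphate ranged from 40 μM to 10 mM in HEPES/KCl/Mg(OAc)2 buffer. kobs came from decay fits to per-tile medians, and kcat and KM from weighted Michaelis–Menten fits.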
As to AUAAAAGCGCCAGAUUUACAGAAAUGUAGUUGACGAGGAGGAGGUUUAUCGAAUUUUGGGCGGAUGCCUUCAAA, the “self-cleavage kobs at 2500 uM GlcN6P” value came out at 7.87e-05 ± 2.1e-05 s⁻¹.

For AUAAAAGCGCCAGAACUACAGAAAUGUACUUGACGAGGAGGUGGUUAAUCGAAUUUUCGGCGGAUGCCUCCAAA, the “self-cleavage kobs at 2500 uM GlcN6P” value is less than 1e-05 s⁻¹.

Regarding AUAAAAGCGCCAGAACUACAGAAAUGUAUAUGACAAGGAGGAGGUUUAUCGAAUUUUCGGCGGAUGCCUACAAA, the “self-cleavage kobs at 2500 uM GlcN6P” value is less than 1e-05 s⁻¹. Turning to AUAAAAGCGCCAGAACUACAGAAAUGUAUUUCACGAGGAGGAGGUUUAUCGAAUUUUCGGCGGACGCCUCCAAA, the “self-cleavage kobs at 2500 uM GlcN6P” value is less than 1e-05 s⁻¹. Under AUAAAAGCGCCAGAACUACAGAAAUGUAGCUGACGAGGAGGAGUGUUAUCGAAUUUUCGGCGGAUGCCGCCAAA stands less than 1e-05 s⁻¹; under AUAAAAGCGCCAGAACUACAGAAAUGUAAUUCACGAGGAGGACGUUUAUCGAAUUUGCGGCGGAUGCUUCCAAA, less than 1e-05 s⁻¹; under AUAAAAGCGCCAGAACUACAGAAAUGUAUUUGACGAGUAGGAGGUUUAUCGAAUUUUCGGCGGAUUCAGCCAAA, 0.000147 ± 5.8e-05 s⁻¹.

On to AUAAAAGCGCCAGAACUACAGAAAUGUAAUUGACGAGGCGGAGGUUUAUCGAAUUUUCAGCGGAUGCCUCCAAA, for which the “self-cleavage kobs at 2500 uM GlcN6P” value is less than 1e-05 s⁻¹. The figure for AUAAAAGCGCCAGAUAUACAGAAAUGUAGUUGACGAGGAGGAGGCUUAUCGAAUUUUCGGCGGAUGCCUACAAA is less than 1e-05 s⁻¹. As for AUAAAAGCGCCAGAACUACAGAAAUGUACUUGAAGAGGAGAAGGUUUAUCGAAUUUUCGGCGGAUGCCUCCAAA, the “self-cleavage kobs at 2500 uM GlcN6P” value is less than 1e-05 s⁻¹. As for AUAAAAGCGCCAGAACUACAGAAAUGUUGUUGACGUGGAGGAGGUAUAUCGAAUUUUCGGCGGAUGCCUCCAAA, the “self-cleavage kobs at 2500 uM GlcN6P” value is less than 1e-05 s⁻¹. The figure for AUAAAAGCGCCAGAAAUACAGAAAUGUAGUUGACGAGGAGGAGGUGUAUCGAAUUUUCGGGGGAUGCCUCCAAA is less than 1e-05 s⁻¹. Under AUAAAAGCGCCAGAACUACAGAAAUGUAGUCGACGAGGAGGAGGUUUUUCGAAAUUUCGGCGGAAGCCUCCAAA stands less than 1e-05 s⁻¹; under AUAAAAGCGCCAGAACUACAGAAAUGUAAUUGACCAGGAGGAGGUUUAUCGAAUUUUUGGCGGAUGCCUCCAAA, less than 1e-05 s⁻¹; under AUAAAAGCGCCAGAACUACAGAAAUGUAGUCGUCGAGGAGGAGGUUUAUCGAAUUUUCGGCGGAUGGCACCAAA, less than 1e-05 s⁻¹. On to AUAAAAGCGCCAGAACUACAGAAAUGUAUUUGACGAGCAGUAGGUUUAUCGAAUUUUCGGCGGAUGCCUGCAAA, for which the “self-cleavage kobs at 2500 uM GlcN6P” value is less than 1e-05 s⁻¹. Under AUAAAAGCGCCAGAACUACAGAAAUGUAUUUGACGAGGAGGAGGUUUAUCGAAUUUACGGCGGAUGCCUCCAAA stands 4.22e-05 ± 1.5e-05 s⁻¹; under AUAAAAGCGCCAGAACUACAGAAAUGUAGUAGACGAGGAGCAGGUUUAUCGAAUUUUGGGCGGAUGCCUCCAAA, less than 1e-05 s⁻¹. Under AUAAAAGCGCCAGAACUACAGAAAUGUAGCUUACGAGGAGGAUGUUUAUCGAAUUUUCGGCGGAUGCCUCCAAA stands less than 1e-05 s⁻¹. Under AUAAAAGCGCCAGAACUACAGAAAUGUAGCUGACGAGGAGGAGGGUUAUCGAAUUUUCGGCGGUUGCCUCCAAA stands less than 1e-05 s⁻¹; under AUAAAAGCGCCAGAACUACAGAAAUGUAUUUGACGAAGAUGAGGUUUAUCGAAUUUGCGGCGGAUGCCUCCAAA, less than 1e-05 s⁻¹. As for AUAAAAGCGCCAGAACUACAGAAAUGUAGCUGACGAGGAGGAGUUUUAUCGAAUUUUCGGCGGUUGCCUGCAAA, the “self-cleavage kobs at 2500 uM GlcN6P” value was less than 1e-05 s⁻¹.

Turning to AUAAAAGCGCCAGAACUACAGAAAUGUAUUUGAAGAUCAGGAGGUUUAUCGAAUUUUCGGCGGAUGUCUCCAAA, the “self-cleavage kobs at 2500 uM GlcN6P” value was less than 1e-05 s⁻¹. On to AUAAAAGCGCCAGAACUACAGAAAUGUACGUGAUGAGGAGGAGGUUCCUCGAAUUUUCGGCGAAUGCCUACAAA, for which the “self-cleavage kobs at 2500 uM GlcN6P” value was less than 1e-05 s⁻¹. The figure for AUAAAAGCGCCAGAAAUACAGAAAUGUAGUUGACGAGGAGGAUGUUUAUCGAUUUUUCGACGGAUGCAUCCAAA is less than 1e-05 s⁻¹; for AUAAAAGCGCCAGAAGUAAAGAAAUGUAGUUUACGAGGAGGUGGUUUAUCGAAUUUUCGACGGAUGCAUCCAAA it is less than 1e-05 s⁻¹; for AUAAAAGCGCCAGAACUACAGAAAUGUAAUUGAAGAGGAGGAGGUUUAUCGAAUUUUCGGCGGAUCCCUCGAAA it is less than 1e-05 s⁻¹.

As to AUAAAAGCGCCAGAACUACAGAAAUGUACUUGACGCGGAGGAGGUUUAUCGAAUUUUCGGCAGAUGCCUCAAAA, the “self-cleavage kobs at 2500 uM GlcN6P” value was less than 1e-05 s⁻¹.

In the case of AUAAAAGCGCCAGAAUUACAGAAAUGUAGUUGACGAGGAGGAGGAUUAUCGAAUUUUCGGCCGAUGCCUCCAAA, the “self-cleavage kobs at 2500 uM GlcN6P” value is less than 1e-05 s⁻¹. AUAAAAGCGCCAGAACUACAGAAAUGUAUUUGAUGAGGAGGAGGUUUAUCGAAUGUUCGGCGGAUGUCUCCAAA: the “self-cleavage kobs at 2500 uM GlcN6P” value is less than 1e-05 s⁻¹. Consider AUAAAAGCGCCAGAACUACAGAAAUGUACUUGACGGGUAGGAGGUUUAUCGAGUUUUCGGCGGAUGCCUCCAAA, for which the “self-cleavage kobs at 2500 uM GlcN6P” value was less than 1e-05 s⁻¹. The figure for AUAAAAGCGCCAGAAAUACAGAAAUGUAGUUGACGAGGACGUGGUUUAUCGAAUUUUCGGCGGAUGCCUCCAAA is less than 1e-05 s⁻¹; for AUAAAAGCGCCAGAUGUACAGAAAUGUAGAUGGCGAGGAGGAGGUUUAUCGAAUUUUCAGCGGAUGCCUCCAAA it is less than 1e-05 s⁻¹; for AUAAAAGCGCCAGAACUACAGAAAUGUAAUUGACGAGGAGGAGGUUUAUGGAAUAUUCGGCGGAUGCCUCCAAA it is 0.000211 ± 8.8e-05 s⁻¹. Under AUAAAAGCGCCAGAUCUACAGAAAUGUAGUUGACGAAGCGGAGGUUUAUCGAAUUUUCCGCGGAUGCCUCCAAA stands less than 1e-05 s⁻¹; under AUAAAAGCGCCAGAAUUACAGAAAUGUAGUUGACGGGGUGGAGGUUUAUCGAAUUUUCGGCAGAUGGCUCCAAA, less than 1e-05 s⁻¹; under AUAAAAGCGCCAGAACUACAGAAAUGUAGCUGAGGAGGAGGAGCUUUAUCGAAUUUGCGGCGGAUGCCUUCAAA, less than 1e-05 s⁻¹.

The values above are taken from the supplement of paper PMC7125110.
